Measurements as given in the supplement of paper PMC3334620.
Whole data set: some 33,000 sequences, median “E-score (-0.5 to 0.5)” near -0.016, cut for the highest 2% near 0.32. This is one part of the list.

Target: T1, Stp1 (UniProt B3LFK1)
T1 sequence: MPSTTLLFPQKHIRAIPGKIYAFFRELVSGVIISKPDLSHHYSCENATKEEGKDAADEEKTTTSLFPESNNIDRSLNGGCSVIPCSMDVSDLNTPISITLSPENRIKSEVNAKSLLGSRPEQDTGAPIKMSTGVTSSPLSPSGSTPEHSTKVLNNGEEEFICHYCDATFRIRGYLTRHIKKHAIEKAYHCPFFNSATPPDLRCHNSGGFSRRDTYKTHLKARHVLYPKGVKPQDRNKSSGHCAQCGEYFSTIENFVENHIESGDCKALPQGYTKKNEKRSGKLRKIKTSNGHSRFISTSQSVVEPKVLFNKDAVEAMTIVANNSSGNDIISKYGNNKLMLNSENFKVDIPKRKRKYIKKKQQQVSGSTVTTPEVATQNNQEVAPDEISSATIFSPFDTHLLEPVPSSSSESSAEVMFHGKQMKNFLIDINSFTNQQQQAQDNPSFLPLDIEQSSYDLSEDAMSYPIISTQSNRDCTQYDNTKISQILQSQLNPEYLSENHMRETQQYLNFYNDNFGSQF
Assay: PBM E-score (8-mer binding enrichment) (E-score (-0.5 to 0.5)); higher = stronger / more preferred TF binding; most listed sequences are background and not binding sites
Settings: protein concentration: 200 nM; construct: GST-full length
How it was run: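 Universal all-10-mer Agilent arrays, fresh or stripped once, were converted to double-stranded form by primer extension. GST-tagged yeast transcription factors from PURExpress in vitro transcription/translation, full-length or DNA-binding domain only, were applied at about 100-200 nM and detected with fluorescent anti-GST. After masliner normalisation, the Universal PBM Analysis Suite scored each ungapped eight-base word together with its reverse complement by E-score.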

Row | Sequence | PBM E-score
1 | CCATGGAG | -0.169
2 | GCATGATA | 0.0383
3 | CCAGTCAG | -0.0588
4 | CGAACAAG | 0.0896
5 | ATTAGAGA | 0.0198
6 | ACGACAAT | 0.0963
7 | AAGGTGGT | -0.15
8 | ACCACTAA | 0.0268
9 | CGCAAGGA | 0.00071
10 | GGGCTATA | -0.293
11 | ACACCCGT | -0.102
12 | GTCCGAAA | 0.156
13 | AGTGTGTC | -0.0201
14 | ATATTCCG | 0.115
15 | AAGTTAGC | 0.122
16 | GGTTTGAA | 0.0901
17 | CATAGTGC | 0.106
18 | CGCGGAGC | 0.0796
19 | CCCGTTGC | -0.0144
20 | GCTGCGAC | -0.089
21 | GCAAGTTA | 0.0849
22 | GCGGCACC | 0.477
23 | CTGACCCA | -0.253
24 | CGCTCTTA | 0.191
25 | ATACGACG | 0.0547

Row | Sequence | PBM E-score
26 | CAACGTAG | -0.0975
27 | CCGTTAGA | 0.191
28 | GCAGACGA | 0.0875
29 | TGTGCACA | -0.219
30 | ACCTCGCT | -0.105
31 | CTACGGGA | -0.145
32 | ATACCCGC | 0.212
33 | AGTCGAAG | -0.115
34 | AATAACAG | 0.2
35 | CAACAGGA | -0.146
36 | CCTATTTA | 0.0522
37 | ACCGCACT | -0.134
38 | AGGAACCC | -0.299
39 | AAGACAGA | 0.132
40 | AAACATTT | 0.0291
41 | GGTGCACA | -0.126
42 | ATCGAAAG | 0.148
43 | TATATAGA | 0.193
44 | AGGTGCGG | 0.189
45 | GTTCGAAC | 0.246
46 | ATGCTCTC | -0.196
47 | ACGTGGCG | 0.272
48 | CTTAAGGA | -0.0327
49 | AATGGTTG | 0.0793
50 | AGCCCGTC | -0.303

Row | Sequence | PBM E-score
51 | AAAACGAA | 0.0597
52 | CGGATGCC | 0.254
53 | AATATTGG | -0.219
54 | GATAGAGA | -0.145
55 | ACCGGAAT | -0.219
56 | GAACGGAA | 0.138
57 | CAAATGAG | -0.0429
58 | AGTATGAG | 0.0527
59 | AGGCCGCG | 0.244
60 | CAAACTCG | -0.00524
61 | ATTCGCAC | 0.0125
62 | CGTTAGAC | 0.0981
63 | CATGAACA | 0.21
64 | AATTCTCC | 0.0125
65 | CCCTGGAC | -0.218
66 | GCCTATTA | 0.137
67 | CACGACAG | 0.0144
68 | CATTGATA | 0.151
69 | TGAAGTCA | -0.127
70 | CACATATA | 0.144
71 | GCCACCCC | -0.188
72 | ACAGACGT | 0.0596
73 | CACATGCA | 0.03
74 | AAGTGGAC | -0.198
75 | ATAGTGAG | -0.0378

Row | Sequence | PBM E-score
76 | CCCTGTCG | 0.0867
77 | ATCAGGTA | 0.0408
78 | AGCCTAAA | -0.00042
79 | ATCTACAA | 0.112
80 | ACGCGCTC | 0.105
81 | GTAATCTA | 0.192
82 | CACCATGG | -0.179
83 | TGCTATAA | -0.105
84 | AATAAATT | 0.186
85 | ACATGCGC | 0.0198
86 | AAGGGGAC | -0.223
87 | TACCTGGA | 0.0429
88 | CTTATTCC | 0.00804
89 | AGCTTCAC | -0.221
90 | CGGCGACC | 0.203
91 | ACTTAACC | -0.121
92 | GAGCTCCC | -0.366
93 | ATCAGGAG | 0.00491
94 | AGCGCCAC | 0.13
95 | AAAAGATC | -0.0296
96 | TGAAGTAA | -0.11
97 | GTAAGTAA | 0.00347
98 | CGAGTAGC | 0.0298
99 | GTAGATCA | 0.0688
100 | GAGATAAC | 0.0172

Row | Sequence | PBM E-score
101 | ATAGAGAC | -0.182
102 | ATACAGAC | -0.0347
103 | ACTCACTA | 0.109
104 | ATCGGCAG | -0.00845
105 | ATACAACA | 0.0507
106 | GTAGGCTA | -0.0678
107 | AGAGCTCC | -0.239
108 | ACAAACGG | 0.352
109 | CCCTTATC | 0.0886
110 | TAGGTCGA | 0.0532
111 | GACAACGA | 0.0291
112 | ATCAATAC | 0.0444
113 | GAGATGCC | 0.108
114 | ATAGTGGA | -0.0133
115 | CATCGTGA | -0.0218
116 | CGTTCGTC | 0.0625
117 | CTGTGAAC | -0.122
118 | CTTTAGCC | 0.107
119 | GGCCCCTA | -0.282
120 | CAGTTAAG | 0.104
121 | CCGGACCC | -0.175
122 | ACGGCTAC | 0.407
123 | ACCGGTCT | -0.445
124 | AGTTTCAG | 0.142
125 | AAGGACGC | 0.00448

Row | Sequence | PBM E-score
126 | ATGAAAAA | 0.24
127 | AAGTGGGT | -0.0658
128 | ACCAACGT | -0.0513
129 | CGTGAAGC | -0.105
130 | TGAGGAAA | -0.0138
131 | AAGCGCGT | -0.116
132 | ACATTCGC | -0.0206
133 | AAGAGTAG | 0.0639
134 | CGACAAGA | 0.0663
135 | ATCCTTCC | -0.293
136 | CTCACTCA | 0.00832
137 | TGCGCGCA | 0.133
138 | CAGCATGC | -0.121
139 | ATGGCTCG | -0.0567
140 | GGCACTCA | -0.0219
141 | ATAGGGAA | -0.0545
142 | ACCCGCTC | -0.119
143 | GAATGCAC | 0.147
144 | CACAAGAG | 0.0773
145 | ATGGATCG | 0.0769
146 | GCTGCTCA | -0.121
147 | CGCAAAGA | 0.117
148 | ATTAATGC | 0.0952
149 | GAAGCCAA | -0.0792
150 | AGAACTAC | 0.0599

Row | Sequence | PBM E-score
151 | CACCGCTG | -0.187
152 | ACTATAGC | -0.156
153 | CTGTACAC | 0.0675
154 | ACGTTCAC | -0.167
155 | CGGAAATC | 0.0016
156 | CCAGATGG | -0.168
157 | CCATCTAC | -0.0688
158 | CTCGACGC | 0.142
159 | TAAGATTA | 0.0404
160 | AATGACAC | -0.105
161 | CCTAGCAC | -0.161
162 | AGGTCACG | -0.175
163 | GGTAGGAC | -0.258
164 | ATAGCGGC | 0.217
165 | ATATTAGC | 0.131
166 | AATGGCAA | 0.206
167 | AGACGCTA | -0.158
168 | CCCGGAAG | -0.139
169 | CCCGCCTC | -0.0165
170 | CCGGACAG | -0.0788
171 | CATAGAGA | -0.033
172 | CAATTACA | 0.13
